Test results published in US20250011379A1 (VERTEX PHARMACEUTICALS, published 2025).
Blank lines part the entries; values can stand above or below the binder they belong to.

Biological target: T1, human C4b (human, UniProt P0C0L5 20-1744)
T1 chain 1: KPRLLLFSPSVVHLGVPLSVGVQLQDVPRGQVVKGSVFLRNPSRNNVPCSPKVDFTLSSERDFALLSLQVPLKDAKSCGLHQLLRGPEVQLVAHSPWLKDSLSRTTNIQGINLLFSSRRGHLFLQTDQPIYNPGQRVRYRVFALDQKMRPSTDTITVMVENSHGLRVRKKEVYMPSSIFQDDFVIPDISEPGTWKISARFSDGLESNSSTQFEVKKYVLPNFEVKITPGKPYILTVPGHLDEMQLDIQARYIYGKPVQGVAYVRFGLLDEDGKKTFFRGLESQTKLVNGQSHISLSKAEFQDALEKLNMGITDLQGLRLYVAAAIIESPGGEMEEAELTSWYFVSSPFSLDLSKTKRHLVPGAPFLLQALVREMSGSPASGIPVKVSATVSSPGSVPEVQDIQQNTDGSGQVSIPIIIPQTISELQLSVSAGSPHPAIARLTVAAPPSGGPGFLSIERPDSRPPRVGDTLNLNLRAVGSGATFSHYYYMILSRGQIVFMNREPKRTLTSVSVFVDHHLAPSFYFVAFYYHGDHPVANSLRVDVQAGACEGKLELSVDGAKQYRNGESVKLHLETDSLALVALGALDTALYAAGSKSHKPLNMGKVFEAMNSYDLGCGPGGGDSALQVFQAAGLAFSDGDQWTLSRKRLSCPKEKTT
T1 chain 2: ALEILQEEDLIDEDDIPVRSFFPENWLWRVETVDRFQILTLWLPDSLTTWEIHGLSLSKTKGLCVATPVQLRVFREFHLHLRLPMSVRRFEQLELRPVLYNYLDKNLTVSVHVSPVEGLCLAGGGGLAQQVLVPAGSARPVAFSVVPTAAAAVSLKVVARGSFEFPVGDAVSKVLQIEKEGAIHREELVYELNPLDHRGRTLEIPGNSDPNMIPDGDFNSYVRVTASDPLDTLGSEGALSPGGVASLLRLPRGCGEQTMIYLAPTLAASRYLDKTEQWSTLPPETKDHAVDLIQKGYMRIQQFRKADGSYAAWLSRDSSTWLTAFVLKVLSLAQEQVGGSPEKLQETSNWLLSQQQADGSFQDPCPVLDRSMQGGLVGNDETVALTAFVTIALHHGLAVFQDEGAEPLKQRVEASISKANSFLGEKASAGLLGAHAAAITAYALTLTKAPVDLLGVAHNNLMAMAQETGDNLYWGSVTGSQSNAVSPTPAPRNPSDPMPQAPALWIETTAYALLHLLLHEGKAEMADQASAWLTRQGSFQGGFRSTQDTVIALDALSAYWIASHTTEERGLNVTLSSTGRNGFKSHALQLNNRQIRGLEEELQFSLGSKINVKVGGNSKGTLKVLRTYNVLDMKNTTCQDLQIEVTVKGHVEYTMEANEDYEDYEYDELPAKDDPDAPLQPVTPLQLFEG
T1 chain 3: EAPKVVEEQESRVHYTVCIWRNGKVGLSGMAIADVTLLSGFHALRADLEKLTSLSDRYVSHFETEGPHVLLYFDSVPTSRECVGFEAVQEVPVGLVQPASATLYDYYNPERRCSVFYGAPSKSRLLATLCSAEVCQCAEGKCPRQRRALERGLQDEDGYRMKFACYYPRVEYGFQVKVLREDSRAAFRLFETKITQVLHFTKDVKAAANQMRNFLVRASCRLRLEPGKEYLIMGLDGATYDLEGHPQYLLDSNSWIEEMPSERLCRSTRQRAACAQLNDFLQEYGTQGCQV
Experiment: cell-based or functional assay

C4c EC50: 203 nM
B1: Const. No. 39: HSA-GGSSGG-hCFI; A55P (enzyme)
chain: [not shown - about 600 residues]GGSSGGKVTYTSQEDLVEKKCLAKKYTHLSCDKVFCQPWQRCIEGTCVCKLPYQCPKNGTPVCATNRRSFPTYCQQKSLECLHPGTKFLNNGTCTAEGKFSVSLKHGNTDSEGIVEVKLVDQDKTMFICKSSWSMREANVACLDLGFQQGADTQRRFKLSDLSINSTECLHVHCRGLETSLAECTFTKRRTMGYQDFADVVCYTQKADSPMDDFFQCVNGKYISQMKACDGINDCGDQSDELCCKACQGKGFHCKSGVCIPSQYQCNGEVDCITGEDEVGCAGFASVTQEETEILTADMDAERRRIKSLLPKLSCGVKNRMHIRRKRIVGGKRAQLGDLPWQVAIKDASGITCGGIYIGGCWILTAAHCLRASKTHRYQIWTTVVDWIHPDLKRIVIEYVDRIIFHENYNAGTYQNDIALIEMKKDGNKKDCELPRSIPACVPWSPYLFQPNDTCIVSGWGREKDNERVFSLQWGEVKLISNCSKFYGNRFYEKEMECAGTYDGSIDACKGDSGGPLVCMDANNVTYVWGVVSWGENCGKPEFPGVYTKVANYFDWISYHVGRPFISQYNV

C4c EC50: 103 nM
B2: Const. No. 3: HSA-GGSSGG-hCFI; L307F (enzyme)
chain: [not shown - about 600 residues]GGSSGGKVTYTSQEDLVEKKCLAKKYTHLSCDKVFCQPWQRCIEGTCVCKLPYQCPKNGTAVCATNRRSFPTYCQQKSLECLHPGTKFLNNGTCTAEGKFSVSLKHGNTDSEGIVEVKLVDQDKTMFICKSSWSMREANVACLDLGFQQGADTQRRFKLSDLSINSTECLHVHCRGLETSLAECTFTKRRTMGYQDFADVVCYTQKADSPMDDFFQCVNGKYISQMKACDGINDCGDQSDELCCKACQGKGFHCKSGVCIPSQYQCNGEVDCITGEDEVGCAGFASVTQEETEILTADMDAERRRIKSLLPKFSCGVKNRMHIRRKRIVGGKRAQLGDLPWQVAIKDASGITCGGIYIGGCWILTAAHCLRASKTHRYQIWTTVVDWIHPDLKRIVIEYVDRIIFHENYNAGTYQNDIALIEMKKDGNKKDCELPRSIPACVPWSPYLFQPNDTCIVSGWGREKDNERVFSLQWGEVKLISNCSKFYGNRFYEKEMECAGTYDGSIDACKGDSGGPLVCMDANNVTYVWGVVSWGENCGKPEFPGVYTKVANYFDWISYHVGRPFISQYNV

C4c EC50: 93.2 nM
B3: Const. No. 34: HSA-GGSSGG-hCFI; H554K (enzyme)
chain: [not shown - about 600 residues]GGSSGGKVTYTSQEDLVEKKCLAKKYTHLSCDKVFCQPWQRCIEGTCVCKLPYQCPKNGTAVCATNRRSFPTYCQQKSLECLHPGTKFLNNGTCTAEGKFSVSLKHGNTDSEGIVEVKLVDQDKTMFICKSSWSMREANVACLDLGFQQGADTQRRFKLSDLSINSTECLHVHCRGLETSLAECTFTKRRTMGYQDFADVVCYTQKADSPMDDFFQCVNGKYISQMKACDGINDCGDQSDELCCKACQGKGFHCKSGVCIPSQYQCNGEVDCITGEDEVGCAGFASVTQEETEILTADMDAERRRIKSLLPKLSCGVKNRMHIRRKRIVGGKRAQLGDLPWQVAIKDASGITCGGIYIGGCWILTAAHCLRASKTHRYQIWTTVVDWIHPDLKRIVIEYVDRIIFHENYNAGTYQNDIALIEMKKDGNKKDCELPRSIPACVPWSPYLFQPNDTCIVSGWGREKDNERVFSLQWGEVKLISNCSKFYGNRFYEKEMECAGTYDGSIDACKGDSGGPLVCMDANNVTYVWGVVSWGENCGKPEFPGVYTKVANYFDWISYKVGRPFISQYNV

C4c EC50: 186 nM
B4: Const. No. 4: HSA-GGSSGG-hCFI; L307H (enzyme)
chain: [not shown - about 600 residues]GGSSGGKVTYTSQEDLVEKKCLAKKYTHLSCDKVFCQPWQRCIEGTCVCKLPYQCPKNGTAVCATNRRSFPTYCQQKSLECLHPGTKFLNNGTCTAEGKFSVSLKHGNTDSEGIVEVKLVDQDKTMFICKSSWSMREANVACLDLGFQQGADTQRRFKLSDLSINSTECLHVHCRGLETSLAECTFTKRRTMGYQDFADVVCYTQKADSPMDDFFQCVNGKYISQMKACDGINDCGDQSDELCCKACQGKGFHCKSGVCIPSQYQCNGEVDCITGEDEVGCAGFASVTQEETEILTADMDAERRRIKSLLPKHSCGVKNRMHIRRKRIVGGKRAQLGDLPWQVAIKDASGITCGGIYIGGCWILTAAHCLRASKTHRYQIWTTVVDWIHPDLKRIVIEYVDRIIFHENYNAGTYQNDIALIEMKKDGNKKDCELPRSIPACVPWSPYLFQPNDTCIVSGWGREKDNERVFSLQWGEVKLISNCSKFYGNRFYEKEMECAGTYDGSIDACKGDSGGPLVCMDANNVTYVWGVVSWGENCGKPEFPGVYTKVANYFDWISYHVGRPFISQYNV

C4c EC50: 745 nM
B5: Const. No. 35: HSA-GGSSGG-hCFI; R371E (enzyme)
chain: [not shown - about 600 residues]GGSSGGKVTYTSQEDLVEKKCLAKKYTHLSCDKVFCQPWQRCIEGTCVCKLPYQCPKNGTAVCATNRRSFPTYCQQKSLECLHPGTKFLNNGTCTAEGKFSVSLKHGNTDSEGIVEVKLVDQDKTMFICKSSWSMREANVACLDLGFQQGADTQRRFKLSDLSINSTECLHVHCRGLETSLAECTFTKRRTMGYQDFADVVCYTQKADSPMDDFFQCVNGKYISQMKACDGINDCGDQSDELCCKACQGKGFHCKSGVCIPSQYQCNGEVDCITGEDEVGCAGFASVTQEETEILTADMDAERRRIKSLLPKLSCGVKNRMHIRRKRIVGGKRAQLGDLPWQVAIKDASGITCGGIYIGGCWILTAAHCLRASKTHEYQIWTTVVDWIHPDLKRIVIEYVDRIIFHENYNAGTYQNDIALIEMKKDGNKKDCELPRSIPACVPWSPYLFQPNDTCIVSGWGREKDNERVFSLQWGEVKLISNCSKFYGNRFYEKEMECAGTYDGSIDACKGDSGGPLVCMDANNVTYVWGVVSWGENCGKPEFPGVYTKVANYFDWISYHVGRPFISQYNV

C4c EC50: 908 nM
B6: Const. No. 7: HSA-GGSSGG-hCFI; P433A (enzyme)
chain: [not shown - about 600 residues]GGSSGGKVTYTSQEDLVEKKCLAKKYTHLSCDKVFCQPWQRCIEGTCVCKLPYQCPKNGTAVCATNRRSFPTYCQQKSLECLHPGTKFLNNGTCTAEGKFSVSLKHGNTDSEGIVEVKLVDQDKTMFICKSSWSMREANVACLDLGFQQGADTQRRFKLSDLSINSTECLHVHCRGLETSLAECTFTKRRTMGYQDFADVVCYTQKADSPMDDFFQCVNGKYISQMKACDGINDCGDQSDELCCKACQGKGFHCKSGVCIPSQYQCNGEVDCITGEDEVGCAGFASVTQEETEILTADMDAERRRIKSLLPKLSCGVKNRMHIRRKRIVGGKRAQLGDLPWQVAIKDASGITCGGIYIGGCWILTAAHCLRASKTHRYQIWTTVVDWIHPDLKRIVIEYVDRIIFHENYNAGTYQNDIALIEMKKDGNKKDCELPRSIAACVPWSPYLFQPNDTCIVSGWGREKDNERVFSLQWGEVKLISNCSKFYGNRFYEKEMECAGTYDGSIDACKGDSGGPLVCMDANNVTYVWGVVSWGENCGKPEFPGVYTKVANYFDWISYHVGRPFISQYNV

C4c EC50: 205 nM
B7: Const. No. 36: HSA-GGSSGG-hCFI; A342R (enzyme)
chain: [not shown - about 600 residues]GGSSGGKVTYTSQEDLVEKKCLAKKYTHLSCDKVFCQPWQRCIEGTCVCKLPYQCPKNGTAVCATNRRSFPTYCQQKSLECLHPGTKFLNNGTCTAEGKFSVSLKHGNTDSEGIVEVKLVDQDKTMFICKSSWSMREANVACLDLGFQQGADTQRRFKLSDLSINSTECLHVHCRGLETSLAECTFTKRRTMGYQDFADVVCYTQKADSPMDDFFQCVNGKYISQMKACDGINDCGDQSDELCCKACQGKGFHCKSGVCIPSQYQCNGEVDCITGEDEVGCAGFASVTQEETEILTADMDAERRRIKSLLPKLSCGVKNRMHIRRKRIVGGKRAQLGDLPWQVAIKDRSGITCGGIYIGGCWILTAAHCLRASKTHRYQIWTTVVDWIHPDLKRIVIEYVDRIIFHENYNAGTYQNDIALIEMKKDGNKKDCELPRSIPACVPWSPYLFQPNDTCIVSGWGREKDNERVFSLQWGEVKLISNCSKFYGNRFYEKEMECAGTYDGSIDACKGDSGGPLVCMDANNVTYVWGVVSWGENCGKPEFPGVYTKVANYFDWISYHVGRPFISQYNV
